A word on the TGI: it is the concentration giving total growth inhibition. A word on the GI50: it is the concentration that inhibits growth by half.

This is an account of results in PubChem BioAssay (NCI).

Where “and” joins values, the source holds several entries; their conditions need not be identical. Equal entries are not always repeated.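 Assay format: 96-well plates, 48-hour exposure. GI50: concentration for 50% inhibition of growth. The concentration for full growth arrest is given as TGI.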 Square brackets hold non-standard residues; d marks the D form. Peptide text beside a SMILES is read from it. * marks the point of attachment. NMeF = CN[CH](Cc1ccccc1)C(=O)O; NMeV = CN[CH](C(=O)O)C(C)C; Boc = CC(C)(C)OC(=O)* Bounds are passed on as bounds.

The test deals with NCI-H322M lung. Put plainly: DTP human tumour cell line panel, 48 h.

`COc1ccccc1/C=C1\SC(=S)N(/C=C2\C(=O)Oc3ccccc3C2=O)C1=O` came in with a TGI of more than 100 µM. As for `COc1cc(/C=C2/C[C@H]3[C@@H]4CC=C5C[C@@H](O)CC[C@]5(C)[C@H]4CC[C@]3(C)NC2=O)cc(OC)c1OC`, the total growth inhibition concentration (TGI) was more than 62.9 µM. In the case of `CC(=O)/C(C)=N/NC(=O)c1ccccc1O`, the GI50 was more than 100 µM and the TGI was more than 100 µM. On to `COC(C(O)CO)C(O)C(O)C(=O)NNc1ccccc1` (stereo unspecified), for which the TGI was more than 100 µM. For `CCOC(=O)c1c(C)n(Cc2ccc(Cl)cc2Cl)c2c1c(CN(C)C)c(O)c1[nH]cnc12`, the GI50 was 19.9 µM and the TGI came out at 36.2 µM. For `COc1ccc(-c2n[nH]nc2-c2cc(OC)c(OC)c(OC)c2)cc1`, the GI50 was less than 0.0142 µM and the TGI is more than 100 µM. Molecule `N#C/C(=C1C=C(Br)/C(=N\O)C=C\1Cl)c1cccc2ccccc12` gave a TGI of 16.6 µM.

Regarding `COC(=O)[C@H](C)NC(=O)NC(=O)NC(=O)CI`, the GI50 was more than 100 µM and the TGI is more than 100 µM.

`C(=Nc1ccc(-c2nc3ccccc3[nH]2)cc1)c1cccs1` came in with a concentration for total growth inhibition (TGI) of more than 100 µM.

For `O=C(N/N=C/c1ccc(Cl)cc1)c1ccc(C(F)(F)F)nc1Nc1cccc(C(F)(F)F)c1`, the GI50 was 1.3 µM and the TGI stood at 16 µM.

Regarding `COCN(CCC1=CCCCC1)C(=O)OC`, the TGI was more than 100 µM.

On to `Cc1cn(C2CC(N(O)Cc3ccccc3)C(CO[Si](C)(C)C(C)(C)C)O2)c(=O)[nH]c1=O` (stereo unspecified), for which the TGI was 65.1 µM and 32.7 µM. With `CCCCN1C(=O)N(c2ccc(OCC)cc2)C2N(CCCC)C1C(C)(C)C2(C)C` (stereo unspecified), the TGI is more than 100 µM. On the same count and under the same terms, under `CON(C)C(=O)CNC(=O)OCC1c2ccccc2-c2ccccc21` stands more than 100 µM. Still for that read-out and setting: next, `NCCCCN(CCCN)/[N+]([O-])=N\O`: more than 100 µM. For the molecule `COc1ccc(Cn2cc3c(c2-c2ccccc2)CC(C)(C)c2cnoc2-3)cc1`, the GI50 is 3.34 µM and the TGI was more than 100 µM. `Cn1cc(NC(=O)c2cc(NC(=O)CN=C(N)N)cn2C)cc1C(=O)NCCC(=N)N` returned a concentration for total growth inhibition (TGI) of more than 100 µM. In turn, `O=c1cc(-c2ccc(F)cc2)[nH]c2ncc(Cl)cc12` had a TGI of more than 80.4 µM. For `N#CCN1C(=O)c2cccc3cc([N+](=O)[O-])cc(c23)C1=O`, the TGI was more than 100 µM.

`CCOC(=O)N/N=C(/N)c1cccc([N+](=O)[O-])c1` displayed a concentration for total growth inhibition (TGI) of more than 100 µM. Regarding `CCN(CC)C(=O)Cn1c(C)cc2ccccc21`, the total growth inhibition concentration (TGI) is more than 100 µM. Consider `COc1ccccc1CCc1cc(OC)c(OC)c(OC)c1`, for which the TGI was more than 100 µM. The molecule `NN/C(=N\S(=O)(=O)c1cc2ccccc2s1)Nc1ccc(Cl)cc1` yielded a TGI of 46.6 µM. Turning to `COc1ccc(C(=O)C(C(=O)CCC(=O)Nc2cccc(Cl)c2)c2ccc(OC)cc2)cc1` (stereo unspecified), the TGI is more than 100 µM. In turn, `CC(=O)OCC12C(=O)C[C@@H](C)C3(CC(c4ccoc4)OC3=O)C1CCC(OC(C)=O)C21CO1` (stereo partly specified) came in with a TGI of more than 100 µM.

The molecule `COc1cc(C=C2C(=O)NC(=O)NC2=O)cc(OC)c1OC` displayed a concentration for total growth inhibition (TGI) of more than 100 µM. `O=C1C2C3C=C4c5ccccc5N(c5ccccc5)C4(C2C(=O)N1Cc1ccccc1)C1C(=O)N(Cc2ccccc2)C(=O)C31` (stereo unspecified) registered a TGI of more than 100 µM. `CC1CC[C@]2(C(=O)O)CCC3(C)C(=CC(=O)C4[C@@]5(C)CCC(=O)C(C)(C)C5CC[C@]43C)[C@@H]2[C@H]1C` (stereo partly specified) returned a TGI of more than 100 µM.

The molecule `Cc1cn(C2CC(O)C(CO)O2)c(=O)n2nnnc12` (stereo unspecified) gave a concentration for total growth inhibition (TGI) of more than 100 µM. In the case of `Cc1c(S(=O)(=O)/N=C(\NO)Nc2ccc(Cl)c(Cl)c2)sc2ccc(Cl)cc12`, the concentration for total growth inhibition (TGI) was determined as 37.4 µM. Take `CC(C)n1nc(-c2cc3cc(O)ccc3[nH]2)c2c(N)ncnc21`: the GI50 is 0.161 µM and the TGI was determined as 2.24 µM. For `O=C1CCC(c2ccc(Cl)cc2)=NN1c1nsc2ccccc12`, the TGI was more than 100 µM. Turning to `c1cc(CNC23CC4CC(CC(C4)C2)C3)cc(C[N+](Cc2cccc(CNC34CC5CC(CC(C5)C3)C4)c2)(Cc2cccc(CNC34CC5CC(CC(C5)C3)C4)c2)Cc2cccc(CNC34CC5CC(CC(C5)C3)C4)c2)c1` (stereo unspecified), the GI50 is 5.25 µM and the TGI was determined as 21.3 µM. `CC(C)C(Nc1c2ccccc2nc2ccccc12)C(=O)O` (stereo unspecified) came in with a TGI of more than 100 µM. For `NS(=O)(=O)c1ccc(N=Nc2c(O)[nH]c3ccc(-c4cnco4)cc23)cc1`, the GI50 is more than 25 µM and the TGI was more than 25 µM. Turning to `COc1cc(-c2ccc3c(c2)NC(=O)/C3=C\c2ccc[nH]2)ccc1O`, the GI50 was 0.179 µM and the TGI was more than 50 µM. As for `Cc1ccc(N=Nc2c(O)ccc3cc(S(=O)(=O)O)cc(S(=O)(=O)O)c23)cc1`, the TGI is more than 100 µM. Regarding `Cc1cc(Cl)ccc1N=C1NC(=O)C(CC(=O)Nc2ccc([N+](=O)[O-])cc2[N+](=O)[O-])S1` (stereo unspecified), the concentration for total growth inhibition (TGI) is more than 100 µM. The same measure, in the same setting: under `NS(=O)(=O)c1ccc(NC2(C(=O)O)CCCC2)cc1` stands more than 100 µM.

On to `O=S(=O)(N=S(c1ccccc1)c1ccccc1)c1ccccc1`, for which the TGI was more than 100 µM. `NC(N)=N/N=C/c1c[nH]c2ccccc12`: the TGI is more than 100 µM. On the same count and under the same terms, next, `CS/C(N)=N\NC(=O)CCC(=O)Nc1ccccc1C(F)(F)F`: more than 100 µM. `Clc1ccc(C2=Nn3c(COc4ccccc4Cl)nnc3SC2)c(Cl)c1`: the GI50 is 25.4 µM and the TGI is 82.5 µM. Consider `Cc1ccc(/C=C2\CCCc3ccccc3C2=O)cc1`, for which the concentration for total growth inhibition (TGI) was more than 100 µM. Consider `c1ccc(CNn2nnc3ccccc32)cc1`, for which the TGI was more than 100 µM. Turning to `COC(=O)[C@@H](C)CNS(=O)(=O)N(c1cc(C(F)(F)F)cc(C(F)(F)F)c1)C1CCN(Cc2ccc(F)cc2)CC1`, the GI50 is 13.9 µM and the total growth inhibition concentration (TGI) amounted to 29.4 µM.

Regarding `Cc1ccc(C(=O)CN(/C=C/C(=O)C(F)(F)F)c2ccc(S(N)(=O)=O)cc2)cc1`, the GI50 is 87.5 µM and the total growth inhibition concentration (TGI) was more than 100 µM. Molecule `CC1(C)NC2C(=O)c3c([nH]c4ccccc34)[C@]3(C)CCC1CC23` (stereo partly specified) had a TGI of more than 100 µM. `N=C(N)c1ccc(C(NC(=O)CNS(=O)(=O)c2ccc3ccccc3c2)P(=O)(Oc2ccccc2)Oc2ccccc2)cc1` (stereo unspecified) registered a TGI of more than 100 µM. `O=C(NI1OC(=O)c2ccccc21)c1ccc(Cl)cc1` came in with a TGI of more than 100 µM.

For `Oc1c(CN2CCOCC2)ccc2cccnc12`, the TGI is more than 10 µM. Molecule `O=C1C(CN2CCCCC2)CCC1CN1CCCCC1` (stereo unspecified) came in with a TGI of 94.6 µM.

`c1ccc2c(c1)ccn2CCc1c[nH]c2ccccc12` had a TGI of more than 10 µM. Take `CCCCCCCC/C=C/CCCCCCCC(=O)OC[C@H]1O[C@@H](n2ccc(N)nc2=O)C(F)(F)[C@@H]1O`: the GI50 was 0.452 µM and the TGI is more than 100 µM.

As to `COc1cc2c3c(n(CCCNC(=O)OCC4c5ccccc5-c5ccccc54)c(=O)c2cc1OC)-c1cc2c(cc1/C3=C\CCNC(=O)OCC1c3ccccc3-c3ccccc31)OCO2`, the GI50 is 23.4 µM and the TGI was more than 50 µM. For the molecule `O=C(N/N=C\c1cccc2c([N+](=O)[O-])cccc12)Nc1ccccc1`, the TGI turned out to be 29 µM.

`O=C1CCN2C(=O)CCN12` yielded a TGI of more than 100 µM. With `O=C1OC(c2ccccc2)=N/C1=C\c1cccc2ccccc12`, the TGI was more than 100 µM.

As for `NP(=O)(Oc1c2occc2cc2ccc(=O)oc12)N(CCCl)CCCl` (stereo unspecified), the TGI is more than 100 µM.

Take `CCOC(=O)/C=C(/C(=O)OCC)n1ccc(=O)n(Cc2cn(COCCOC(C)=O)nn2)c1=O`: the TGI was more than 100 µM. For `CC(=O)[O-].CCN(CC)c1ccc(C=NCCN=Cc2ccc(N(CC)CC)cc2[O-])c([O-])c1.[Mn+3]`, the GI50 was 22.6 µM and the TGI amounted to 43 µM. In turn, `Cc1ccc([N+](=O)[O-])cc1S(=O)(=O)Nc1ccc(C2=NNC(c3ccccc3)C2)cc1` (stereo unspecified) showed a concentration for total growth inhibition (TGI) of more than 100 µM.

For `COC(=O)C1=CNC=C(C(=O)OC)C1C1=CC(=O)C(C)=CC1=O`, the GI50 is 55.4 µM and the TGI is more than 100 µM. For `COc1cc(Cn2c3c(c4cc(O)ccc42)Cc2ccccc2C3=O)cc(OC)c1`, the TGI is more than 100 µM. Take `Cc1cc(S(=O)(=O)Nc2nnc(-c3ccccc3)c(-c3ccccc3)n2)c(SCC(N)=O)cc1Cl`: the GI50 is 41.8 µM and the concentration for total growth inhibition (TGI) was more than 100 µM. Molecule `COC(=O)/C(=N\Nc1nnc(C)n1N)C(C#N)c1ccc(Cl)cc1` (stereo unspecified) displayed a TGI of more than 100 µM. As for `CN1CCN(CCCOc2ccc3nc(Nc4ccc(Cl)c(C(F)(F)F)c4)ccc3c2)CC1`, the GI50 was 15.2 µM and the TGI is 29.5 µM. For the molecule `CCC[CH2][Sn]1([CH2]CCC)[O]CC(CN2CCCC2)[O]1` (stereo unspecified), the GI50 is 28.6 µM and the TGI was more than 100 µM. The molecule `CCOc1ccccc1NC(=O)CC(C(=O)OC)C(=O)C(=O)OC` (stereo unspecified) registered a total growth inhibition concentration (TGI) of more than 100 µM. On to `Cc1nc(N)sc1C(=O)/C=C\c1ccc2c(c1)OCO2`, for which the TGI is more than 100 µM. The molecule `CC(C)C(NC(=O)OC(C)(C)C)C(=O)N(C)C(Cc1ccccc1)C(=O)N(C)C(C(=O)O)C(C)C` (stereo not drawn) (Boc-Val-[NMeF]-[NMeV]-OH; configuration not given here) came in with a TGI of more than 100 µM. On the same count and under the same terms, under `CCCN1CCC(=O)N(CCC(F)(F)C(F)(F)C(F)(F)C(F)(F)C(F)(F)C(F)(F)F)C1=S` stands more than 100 µM. In the case of `COc1cc2nc3cc([N+](=O)[O-])ccc3c(NCCCNCCO)c2cc1OC`, the GI50 was 0.171 µM and the TGI is 0.571 µM.

Take `COC[C@@H](C[C@H]1O[C@@](O)([C@H](O)[C@@H]2C[C@H](OC)[C@@H](O)CC/C=C(C)/C=C/[C@@H](O[C@@H]3O[C@@H](C)[C@H](OC)[C@@H](O)[C@@H]3O)[C@H](C)/C=C(C)/C=C(C)/C=C(\C)C(=O)O2)[C@H](C)[C@@H](O)[C@H]1C)O[C@H]1C[C@](C)(O)[C@@H](O[C@H]2C[C@@H](OC)[C@H](O)[C@@H](C)O2)C(C)O1` (stereo partly specified): the TGI is more than 100 µM.

Regarding `CC(C)(C)c1cc(Br)c(O)c(CN(Cc2cc(C(C)(C)C)cc(Br)c2O)C2CCCCC2)c1`, the TGI stood at 31.2 µM.

As to `COC1=C(OC)C(=O)C(Cc2c(C)nc3sc(C)cn23)=C(C)C1=O`, the TGI was more than 100 µM. Regarding `COc1cc(/C=C2\C(=O)N(c3ccccc3)C(c3ccccc3)S2(=O)=O)cc(OC)c1OC` (stereo unspecified), the TGI is more than 100 µM.

Consider `COC(CNC(=O)C(C)NC(=O)CCc1ccccc1)OC` (stereo unspecified), for which the TGI was more than 100 µM. As to `CC(=O)CSCc1ccccn1`, the TGI is more than 100 µM. As to `CC1OC(OC2C(O[C@H]3CC[C@@]4(C)C(=CC[C@H]5[C@@H]6C[C@@H]7O[C@]8(CC[C@@H](CO)CO8)[C@@H](C)[C@@H]7[C@@]6(C)CC[C@@H]54)C3)OC(CO)C(O)C2OC2OC(CO)C(O)C(O)C2O)C(O)C(O)C1O` (stereo partly specified), the TGI amounted to 4.88 µM.
